Test results reported in the supplement of paper PMC8728848.
The list shows a part of the results.

Tests used:
Assay in all cases: glycan array binding signal (z-score within array); higher = stronger binding
Conditions in all cases: glycan notation: IUPAC condensed, linker removed
[1] = molecular target: Fuc(a1-3)[Gal(b1-4)]GlcNAc6S
Method in brief: (§1)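 The binding signal is a Z-score computed within each array. Data were drawn from 3228 arrays in the Consortium for Functional Glycomics database, restricted to those with a known protein sequence. Scores were averaged over arrays of the same protein sequence at different concentrations or buffers, and over linkers, and negative values can be taken as non-binding.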

[2] = molecular target: Fuc(a1-3)[Gal3S(b1-4)]GlcNAc
Method in brief: as §1

[3] = molecular target: Fuc(a1-3)[Gal3S(b1-4)]GlcNAc6S
Method in brief: as §1

[4] = molecular target: Fuc(a1-3)[GalNAc(b1-4)]GlcNAc
Method in brief: as §1

Fuc(a1-4)GlcNAc = molecular target: Fuc(a1-4)GlcNAc
Method in brief: as §1

Fuc(b1-3)GlcNAc = molecular target: Fuc(b1-3)GlcNAc
Method in brief: as §1

Gal(a1-2)Gal = molecular target: Gal(a1-2)Gal
Method in brief: as §1

Gal(a1-3)Gal = molecular target: Gal(a1-3)Gal
Method in brief: as §1

Gal(a1-3)Gal(b1-3)GlcNAc = molecular target: Gal(a1-3)Gal(b1-3)GlcNAc
Method in brief: as §1

[5] = molecular target: Gal(a1-3)Gal(b1-3)GlcNAc(b1-2)Man(a1-3)[Gal(a1-3)Gal(b1-3)GlcNAc(b1-2)Man(a1-6)]Man(b1-4)GlcNAc(b1-4)GlcNAc
Method in brief: as §1

[6] = molecular target: Gal(a1-3)Gal(b1-3)GlcNAc(b1-3)GalNAc
Method in brief: as §1

[7] = molecular target: Gal(a1-3)Gal(b1-3)[Fuc(a1-4)]GlcNAc(b1-2)Man(a1-3)[Gal(a1-3)Gal(b1-3)[Fuc(a1-4)]GlcNAc(b1-2)Man(a1-6)]Man(b1-4)GlcNAc(b1-4)GlcNAc
Method in brief: as §1

Gal(a1-3)Gal(b1-4)Glc = molecular target: Gal(a1-3)Gal(b1-4)Glc
Method in brief: as §1

Gal(a1-3)Gal(b1-4)GlcNAc = molecular target: Gal(a1-3)Gal(b1-4)GlcNAc
Method in brief: as §1

[8] = molecular target: Gal(a1-3)Gal(b1-4)GlcNAc(b1-3)GalNAc
Method in brief: as §1

[9] = molecular target: Gal(a1-3)Gal(b1-4)[Fuc(a1-3)]GlcNAc
Method in brief: as §1

[10] = molecular target: Gal(a1-3)Gal(b1-4)[Fuc(a1-3)]GlcNAc(b1-2)Man(a1-3)[Gal(a1-3)Gal(b1-4)[Fuc(a1-3)]GlcNAc(b1-2)Man(a1-6)]Man(b1-4)GlcNAc(b1-4)GlcNAc
Method in brief: as §1

Gal(a1-3)GalNAc = molecular target: Gal(a1-3)GalNAc
Method in brief: as §1

[11] = molecular target: Gal(a1-3)[Gal(a1-4)]Gal(b1-4)GlcNAc
Method in brief: as §1

[12] = molecular target: Gal(a1-4)Gal(b1-3)GlcNAc(b1-2)Man(a1-3)[Gal(a1-4)Gal(b1-3)GlcNAc(b1-2)Man(a1-6)]Man(b1-4)GlcNAc(b1-4)GlcNAc
Method in brief: as §1

Gal(a1-4)Gal(b1-4)Glc = molecular target: Gal(a1-4)Gal(b1-4)Glc
Method in brief: as §1

Gal(a1-4)Gal(b1-4)GlcNAc = molecular target: Gal(a1-4)Gal(b1-4)GlcNAc
Method in brief: as §1

[13] = molecular target: Gal(a1-4)Gal(b1-4)GlcNAc(b1-2)Man(a1-3)[Gal(a1-4)Gal(b1-4)GlcNAc(b1-2)Man(a1-6)]Man(b1-4)GlcNAc(b1-4)GlcNAc
Method in brief: as §1

[14] = molecular target: Gal(a1-4)Gal(b1-4)GlcNAc(b1-3)Gal(b1-4)Glc
Method in brief: as §1

Gal(a1-4)GlcNAc = molecular target: Gal(a1-4)GlcNAc
Method in brief: as §1

Gal(a1-6)Glc = molecular target: Gal(a1-6)Glc
Method in brief: as §1

Gal(b1-2)Gal = molecular target: Gal(b1-2)Gal
Method in brief: as §1

Gal(b1-3)Gal = molecular target: Gal(b1-3)Gal
Method in brief: as §1

Gal(b1-3)Gal(b1-4)GlcNAc = molecular target: Gal(b1-3)Gal(b1-4)GlcNAc
Method in brief: as §1

[15] = molecular target: Gal(b1-3)Gal(b1-4)GlcNAc(b1-2)Man(a1-3)[Gal(b1-3)Gal(b1-4)GlcNAc(b1-2)Man(a1-6)]Man(b1-4)GlcNAc(b1-4)GlcNAc
Method in brief: as §1

Gal(b1-3)GalNAc = molecular target: Gal(b1-3)GalNAc
Method in brief: as §1

[16] = molecular target: Gal(b1-3)GalNAc(a1-3)[Fuc(a1-2)]Gal(b1-4)Glc
Method in brief: as §1

[17] = molecular target: Gal(b1-3)GalNAc(a1-3)[Fuc(a1-2)]Gal(b1-4)GlcNAc
Method in brief: as §1

[18] = molecular target: Gal(b1-3)GalNAc(b1-3)Gal(a1-4)Gal(b1-4)Glc
Method in brief: as §1

[19] = molecular target: Gal(b1-3)GalNAc(b1-4)Gal(b1-4)Glc
Method in brief: as §1

[20] = molecular target: Gal(b1-3)GalNAc(b1-4)[Neu5Ac(a2-3)]Gal(b1-4)Glc
Method in brief: as §1

Gal(b1-3)GlcNAc = molecular target: Gal(b1-3)GlcNAc
Method in brief: as §1

B1: ASAL (Allium sativum), P83886 (protein)
chain: MGRTTSSPKAMMRIATVAAILTILASTCMARNVLTNGEGLYAGQSLDVEQYKFIMQDDCNLVLYEYSTPIWASNTGVTGKNGCRAVMQRDGNFVVYDVNGRPVWASNSVRGNGNYILVLQKDRNVVIYGSDIWSTGTYRRSVGGAVVMAMNGTVDGGSVIGPVVVNQNVTAAIRKVGTGAA
glycan array binding signal (z-score) [1]: -0.224
glycan array binding signal (z-score) [2]: -0.258
glycan array binding signal (z-score) [3]: -0.222
glycan array binding signal (z-score) [4]: -0.239
glycan array binding signal (z-score) (Fuc(a1-4)GlcNAc): -0.285
glycan array binding signal (z-score) (Fuc(b1-3)GlcNAc): -0.278
glycan array binding signal (z-score) (Gal(a1-2)Gal): -0.247
glycan array binding signal (z-score) (Gal(a1-3)Gal): -0.285
glycan array binding signal (z-score) (Gal(a1-3)Gal(b1-3)GlcNAc): -0.304
glycan array binding signal (z-score) [5]: -0.177
glycan array binding signal (z-score) [6]: -0.206
glycan array binding signal (z-score) [7]: -0.093
glycan array binding signal (z-score) (Gal(a1-3)Gal(b1-4)Glc): -0.155
glycan array binding signal (z-score) (Gal(a1-3)Gal(b1-4)GlcNAc): -0.268
glycan array binding signal (z-score) [8]: -0.293
glycan array binding signal (z-score) [9]: -0.146
glycan array binding signal (z-score) [10]: -0.115
glycan array binding signal (z-score) (Gal(a1-3)GalNAc): -0.243
glycan array binding signal (z-score) [11]: -0.174
glycan array binding signal (z-score) [12]: -0.169
glycan array binding signal (z-score) (Gal(a1-4)Gal(b1-4)Glc): -0.282
glycan array binding signal (z-score) (Gal(a1-4)Gal(b1-4)GlcNAc): -0.236
glycan array binding signal (z-score) [13]: -0.228
glycan array binding signal (z-score) [14]: -0.208
glycan array binding signal (z-score) (Gal(a1-4)GlcNAc): -0.29
glycan array binding signal (z-score) (Gal(a1-6)Glc): -0.285
glycan array binding signal (z-score) (Gal(b1-2)Gal): -0.276
glycan array binding signal (z-score) (Gal(b1-3)Gal): -0.153
glycan array binding signal (z-score) (Gal(b1-3)Gal(b1-4)GlcNAc): -0.227
glycan array binding signal (z-score) [15]: -0.158
glycan array binding signal (z-score) (Gal(b1-3)GalNAc): -0.28
glycan array binding signal (z-score) [16]: -0.229
glycan array binding signal (z-score) [17]: -0.248
glycan array binding signal (z-score) [18]: -0.239
glycan array binding signal (z-score) [19]: -0.206
glycan array binding signal (z-score) [20]: -0.297
glycan array binding signal (z-score) (Gal(b1-3)GlcNAc): -0.266
